Measurements: article PMC12564265, “Navigating the Deep Eutectic Solvent Landscape: Experimental and Machine Learning Solubility Explorations of Syringic, p-Coumaric, and Caffeic Acids” (International Journal of Molecular Sciences, 2025)
Further values from the same series stand in other lists.

Experiment: Shake-flask solubility with spectrophotometric measurement in neat deep eutectic solvents
Format: physicochemical
Protocol: In order to determine the solubility of the three studied phenolic acids in deep eutectic solvents, a very well-established shake-flask method coupled with spectrophotometric measurements was utilized. The initial procedure involved the preparation of various DESs, which was conducted by mixing their HBA and HBD counterparts in a glass vessel and heating the composition until the formation of a transparent, uniform liquid. […] For additional measurements, the DESs were mixed with water in varying proportions, creating aqueous DES systems. Saturated solutions of CAF, SYR, and COU were obtained by adding excess amounts of these compounds to test tubes containing either a neat deep eutectic solvent or its aqueous solution. Such samples were placed in the Orbital Shaker Incubator ES-20/60 from Biosan (Riga, Latvia) and heated for 24 h at 25 °C, 30 °C, 35 °C, and 40 °C (±0.1 °C) with simultaneous mixing at 60 rpm. Before measurements, the samples were filtered using a PTFE syringe filter from Qpore (Dallas, TX, USA) with a 0.22 μm pore size. In order to avoid possible precipitation of the saturated solutions at decreased temperatures, the test tubes, syringes, pipette tips, and filters were kept at a temperature identical to that of the samples. The spectrophotometric measurements required the preparation of calibration curves for the three APIs. This involved the preparation of a stock solution of each compound in methanol, which was later successfully diluted, and the obtained solutions of varying concentrations were measured using an A360 spectrophotometer from AOE Instruments (Shanghai, China). The wavelength range was set to 200-500 nm, and the resolution was 1 nm. The analytical wavelengths were determined to be 324 nm for caffeic acid, 273 nm for syringic acid, and 308 nm for p-coumaric acid. The final regression equations, obtained after averaging three distinct sets of measurements, are collected in Table 2 together with determination coefficients and limits of detection (LOD) and quantification (LOQ) for the calibration curves. The measurements of the samples were conducted with the same spectrophotometer and identical settings. Methanol was used for the dilution of the samples so that they could remain within the linearity range of the method. Complete spectra of the samples were recorded, but for the solubility determination, the absorbance values at a specific analytical wavelength were considered. These values were combined with the corresponding regression equations of the calibration curves and served for the calculation of the concentration of the three phenolic acids in the studied samples. The densities of such samples were also measured, and for this task 1 mL of each sample was weighed to a precision of 0.1 mg using an AS 110 R2.PLUS analytical balance from […] (Radom, Poland). The obtained densities enabled the calculation of mole fractions of CAF, SYR, and COU dissolved in the studied DESs. For each considered system, three distinct measurements were conducted, and the results were averaged.

[1] = neat DES Bet - ETG, HBA:HBD molar ratio 1:4, 25 °C
[2] = neat DES ChCl - DEG, HBA:HBD molar ratio 1:4, 25 °C
[3] = neat DES ChCl - GLY, HBA:HBD molar ratio 1:1, 25 °C
[4] = neat DES ChCl - GLY, HBA:HBD molar ratio 1:2, 25 °C
[5] = neat DES ChCl - GLY, HBA:HBD molar ratio 1:4, 25 °C
[6] = neat DES ChCl - TEG, HBA:HBD molar ratio 1:1, 25 °C
[7] = neat DES ChCl - TEG, HBA:HBD molar ratio 1:4, 25 °C

Row | SMILES | Mole fraction solubility [1] | Mole fraction solubility [2] | Mole fraction solubility [3] | Mole fraction solubility [4] | Mole fraction solubility [5] | Mole fraction solubility [6] | Mole fraction solubility (neat DES ChCl - TEG, HBA:HBD molar ratio 1:2, 25 °C) | Mole fraction solubility [7] | Mole fraction solubility (neat DES ChCl - TEG, HBA:HBD molar ratio 1:2, 25 °C, listed as syryngic acid) | Mole fraction solubility (neat DES ChCl - TEG, HBA:HBD molar ratio 1:2, 25 °C, listed as coumaric acid)
1 | O=C(O)C=Cc1ccc(O)c(O)c1 [caffeic acid, 3,4-dihydroxycinnamic acid] | 0.0435±0.0002 mole fraction | 0.0648±0.0005 mole fraction | 0.0747±0.0004 mole fraction | 0.0815±0.0006 mole fraction | 0.0756±0.0005 mole fraction | 0.0740±0.0005 mole fraction | 0.0835±0.0010 mole fraction | 0.0824±0.0003 mole fraction | – | –
2 | COc1cc(C(=O)O)cc(OC)c1O [syringic acid, 4-hydroxy-3,5-dimethoxybenzoic acid] | – | 0.0338±0.0004 mole fraction | 0.0213±0.0002 mole fraction | 0.0400±0.0002 mole fraction | 0.0310±0.0002 mole fraction | 0.0346±0.0004 mole fraction | – | 0.0412±0.0005 mole fraction | 0.0515±0.0004 mole fraction | –
3 | O=C(O)C=Cc1ccc(O)cc1 [p-coumaric acid, 4-hydroxycinnamic acid] | 0.0342±0.0004 mole fraction | 0.0706±0.0005 mole fraction | 0.0525±0.0004 mole fraction | 0.0642±0.0005 mole fraction | 0.0595±0.0004 mole fraction | 0.0709±0.0006 mole fraction | – | 0.0879±0.0006 mole fraction | – | 0.0997±0.0009 mole fraction
